The campaign covered roughly 270,000 compounds. About 5,800 (2.1%) were called active. Inconclusive results, whose numbers are uncertain, are shown with a selection of clear calls. Calls come from the whole dose curve; as a rule, active = well fitted inhibition curve with a large enough effect; inconclusive = small, poorly fitted or top-dose-only effect; inactive = flat fitted curve, though single readings scatter. A potency beside an inconclusive call is a rough fit, not a confirmed value.
What follows are molecules tested against Microtubule-associated protein tau (Homo sapiens) (UniProt P10636) (assay: qHTS for Inhibitors of Tau Fibril Formation, Thioflavin T Binding). Details: recombinant tau K18 P301L (four-repeat tau fragment), heparin-induced fibrillization, ThT fluorescence; series mostly up to 57.4 µM; activity, negative = inhibition: at the top concentration.
Method in brief: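 Aggregation was driven by heparin (20 uM final) acting on recombinant tau […] bearing P301L in 100 mM sodium acetate pH 7; fibrils were detected with Thioflavin T.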
% is set by controls: 0 for no effect and ±100 for the full control effect; potency is the fitted concentration of half-maximal effect; tags give direction and shape of the fitted curve.
Note: nearly all actives have a fitted effect of over 55% in size.

UniProt P10636, sequence (P10636 whole entry, looked up, the tested form may be a part): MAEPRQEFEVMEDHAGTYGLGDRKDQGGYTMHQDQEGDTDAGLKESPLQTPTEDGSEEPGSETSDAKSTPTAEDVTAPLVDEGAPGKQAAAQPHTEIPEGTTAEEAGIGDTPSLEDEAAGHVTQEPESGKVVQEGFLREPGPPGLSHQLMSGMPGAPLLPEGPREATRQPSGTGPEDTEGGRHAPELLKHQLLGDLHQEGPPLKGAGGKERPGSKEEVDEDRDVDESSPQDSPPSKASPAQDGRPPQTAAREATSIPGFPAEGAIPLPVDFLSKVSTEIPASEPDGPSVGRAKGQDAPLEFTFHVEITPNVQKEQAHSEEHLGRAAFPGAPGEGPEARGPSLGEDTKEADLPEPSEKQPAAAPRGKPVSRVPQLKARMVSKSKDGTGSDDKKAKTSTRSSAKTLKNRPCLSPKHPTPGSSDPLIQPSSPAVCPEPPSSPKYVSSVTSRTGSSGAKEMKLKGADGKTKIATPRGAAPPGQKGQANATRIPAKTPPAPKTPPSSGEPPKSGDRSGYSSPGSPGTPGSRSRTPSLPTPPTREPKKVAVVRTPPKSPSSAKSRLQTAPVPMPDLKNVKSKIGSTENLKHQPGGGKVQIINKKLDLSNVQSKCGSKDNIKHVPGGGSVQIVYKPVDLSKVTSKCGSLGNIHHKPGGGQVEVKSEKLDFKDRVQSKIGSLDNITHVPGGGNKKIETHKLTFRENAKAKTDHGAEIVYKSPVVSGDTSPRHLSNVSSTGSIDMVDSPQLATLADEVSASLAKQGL

Row | SMILES | Potency | activity, negative = inhibition
1 | c1ccc2c(c1)Nc1cc3ccccc3cc1S2 | active: 2.24 µM | 
2 | COc1ccc(OC)c(/C=N\NC(=O)CSc2nnc(CCCc3ccc(OC)c(C)c3)o2)c1 | inconclusive: 12.6 µM [inhibitor, partial curve] | 
3 | CC(C)Cc1nnc(NC(=O)Cc2cccs2)s1 | inconclusive: 25.1 µM [inhibitor, partial curve, poor fit] | 
4 | CCN(CC)S(=O)(=O)c1ccc(NC(=O)C2CCCN(C(=O)c3ccc(Cl)cc3)C2)cc1 (stereo not drawn) |  | inactive: -7.63%
5 | Cc1nc2ccccc2n1CC(O)Cn1c2ccccc2c2ccccc21 (stereo not drawn) | inconclusive: 3.98 µM [inhibitor, partial curve] | 
6 | CCCN(C#N)c1nc(NCC)nc(NC(C)C)n1 |  | inactive: -15%
7 | CCOC(=O)c1cc(-c2cccc([N+](=O)[O-])c2)n[nH]1 | inconclusive: 14.1 µM [inhibitor, single point] | 
8 | COc1c(C)cc(Br)cc1C(=O)Nc1cccc(NC(=O)c2ccco2)c1 | inconclusive: 17.8 µM [inhibitor, partial curve] | 
9 | CCOc1cc(/C=C2/SC(=S)NC2=O)ccc1OC(=O)c1ccco1 | active: 12.6 µM | 
10 | CCOc1ccc(-c2nnn(CC(=O)c3ccc4c(c3)OCCO4)n2)cc1OCC | inconclusive: 5.62 µM [inhibitor, partial curve, poor fit] | 
11 | CCOC(=O)c1c(NC(=S)NC)sc2c1CC(C)(C)SC2 | inconclusive: 14.1 µM [inhibitor, partial curve] | 
12 | COc1ccc(OCC(=O)O/N=C(\N)c2ccc(OC)cc2)cc1 | inconclusive: 2.24 µM [inhibitor, full curve] | 
13 | CCOC(=O)c1ccc2c(c1)sc1nc(-c3ccc(OCC)cc3)cn12 | inconclusive: 0.158 µM [inhibitor, full curve, poor fit] | 
14 | CCC1(c2ccccc2)NC(=S)N(c2ccc(C)c(C)c2)N1 (stereo not drawn) | inconclusive: 14.1 µM [inhibitor, partial curve] | 
15 | CCn1c(=O)ccc2cc([N+](=O)[O-])ccc21 |  | inactive: -9.46%
16 | Cc1ccccc1/[N+]([O-])=C/c1ccncc1 | inconclusive: 39.8 µM [inhibitor, single point] | 
17 | CCOc1ccc(CCNC(=O)CSc2nnnn2-c2ccccc2Cl)cc1OCC | inconclusive: 35.5 µM [inhibitor, partial curve, poor fit] | 
18 | CCC(=O)Nc1ccc(C(=O)N/N=C/c2cc(Br)c(OC)cc2OC)cc1 | inconclusive: 2.82 µM [inhibitor, full curve] | 
19 | Cc1sc(NC(=O)CSC2=NCCS2)nc1-c1ccccc1 | inconclusive: 17.8 µM [inhibitor, partial curve] | 
20 | COc1cccc(N=Nc2c(=O)[nH]n3c(C)cc(C)nc23)c1 | inconclusive: 22.4 µM [inhibitor, partial curve] | 
21 | CCN(CC)c1ccc(C(=O)Nc2cccc(F)c2)cc1 | inconclusive: 17.8 µM [inhibitor, partial curve] | 
22 | Cc1ccc(Cl)cc1N1CCN(S(=O)(=O)c2c(C)[nH]c(=O)[nH]c2=O)CC1 |  | inactive: -18.6%

Row | SMILES | Potency | activity, negative = inhibition
23 | Cc1c(O)ccc(-c2n[nH]c(C(=O)O)c2-c2nc3ccccc3s2)c1O | inconclusive: 10 µM [inhibitor, partial curve, poor fit] | 
24 | O=C(NC(=S)Nc1ccc(N2CCCCC2)cc1)c1ccc2c(c1)OCCO2 | inconclusive: 10 µM [inhibitor, partial curve] | 
25 | CCOc1ccc(NC(=O)c2ccc3c(c2)N(Cc2ccc(F)cc2)C(=O)CS3=O)cc1 (stereo not drawn) | inconclusive: 17.8 µM [inhibitor, partial curve] | 
26 | CCc1nnc(NC(=O)CSc2nnc(-c3ccc(O)cc3)n2C)s1 | inconclusive: 14.1 µM [inhibitor, partial curve, poor fit] | 
27 | CCCN1C(=S)SC(C)(C)C1/[N+]([O-])=C/c1ccc(S(=O)(=O)NC)cc1 (stereo not drawn) |  | inactive: -11.7%
28 | C/C(=N/N1CCN(c2ccccc2)CC1)c1cccc([N+](=O)[O-])c1 | inconclusive: 14.1 µM [inhibitor, partial curve] | 
29 | S=C(NCc1ccc2c(c1)OCO2)Nc1ccc(-c2nc3ccccc3[nH]2)cc1 | inconclusive: 28.2 µM [activator, partial curve] | 
30 | COc1ccc2[nH]c3c(=O)n(N)c(C)nc3c2c1 |  | inactive: -6.54%
31 | NC(=S)NN=C1C2CC3CC(C2)CC1C3 |  | inactive: -3.11%
32 | COc1ccc2c(c1)c(=O)c(C(=O)c1ccc(C)cc1)cn2Cc1ccccc1F | inconclusive: 2 µM [inhibitor, full curve, poor fit] | 
33 | O=C(CSc1nc(-c2ccccc2Cl)ns1)c1ccc(Cl)cc1 | inconclusive: 17.8 µM [inhibitor, single point] | 
34 | CCC(C(=O)OC)n1nnc2sc(-c3ccccc3)cc2c1=O (stereo not drawn) | inconclusive: 25.1 µM [inhibitor, partial curve] | 
35 | COc1cc(OC)cc(-c2nc3ccccc3c(=O)n2OC(=O)c2ccccc2C)c1 | inconclusive: 25.1 µM [inhibitor, single point] | 
36 | CCOc1ccc(N2CC(C(=O)NCCN3C(=O)S/C(=C\c4cccnc4)C3=O)CC2=O)cc1 (stereo not drawn) | active: 22.4 µM | 
37 | O=C(/C=C/c1ccccc1)Nc1cccc(C(=O)O)c1 |  | inactive: 6.06%
38 | CCn1c(SCC(=O)NC(=O)Nc2ccc3c(c2)OCCO3)nnc1-c1cccs1 | inconclusive: 7.94 µM [inhibitor, full curve] | 
39 | Cc1ccc(S(=O)(=O)NNC(=S)NC(=O)c2ccc([N+](=O)[O-])cc2)cc1 | inconclusive: 14.1 µM [inhibitor, partial curve] | 
40 | Cc1ccc(C)c(NC(=O)CSc2nnc(C)n3c2cc2occc23)c1 | inconclusive: 2.82 µM [inhibitor, full curve, poor fit] | 
41 | N#C/C(=C\C=C\c1ccccc1[N+](=O)[O-])C(=O)NC1CCCCC1 | inconclusive: 25.1 µM [inhibitor, partial curve] | 
42 | COc1cccc(C(=O)c2sc(Nc3ccc(F)c(Cl)c3)nc2N)c1 |  | inactive: 0.0688%
43 | C=CCn1c(COc2cccc(C)c2C)nnc1SCC(=O)N1CCN(c2ccccc2)CC1 | inconclusive: 28.2 µM [inhibitor, partial curve] | 
